# In the supplement of paper PMC8728848:
# This is one part of the list.
# Experiments:
# Assay in all cases: glycan array binding signal (z-score within array); higher = stronger binding
# Conditions in all cases: glycan notation: IUPAC condensed, linker removed
# GalNAc(b1-3)Gal = target: GalNAc(b1-3)Gal
# In short: (§1)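 Negative Z-scores can be read as non-binding. The Z-score is calculated within each array and then averaged across arrays of one protein sequence at different concentrations or buffers and across linkers. Arrays, 3228 in all, were curated from the Consortium for Functional Glycomics database and kept only where the protein sequence was available.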
# [1] = target: GalNAc(b1-3)Gal(a1-4)Gal(b1-4)GlcNAc
# In short: as §1
# [2] = target: GalNAc(b1-3)Gal(a1-4)Gal(b1-4)GlcNAc(b1-3)Gal(b1-4)Glc
# In short: as §1
# [3] = target: GalNAc(b1-3)Gal(a1-6)Gal(b1-4)Glc
# In short: as §1
# GalNAc(b1-3)GalNAc = target: GalNAc(b1-3)GalNAc
# In short: as §1
# GalNAc(b1-3)GlcNAc = target: GalNAc(b1-3)GlcNAc
# In short: as §1
# GalNAc(b1-4)Gal(b1-4)Glc = target: GalNAc(b1-4)Gal(b1-4)Glc
# In short: as §1
# GalNAc(b1-4)GlcNAc = target: GalNAc(b1-4)GlcNAc
# In short: as §1
# [4] = target: GalNAc(b1-4)GlcNAc(b1-2)Man
# In short: as §1
# [5] = target: GalNAc(b1-4)GlcNAc(b1-2)Man(a1-3)[GalNAc(b1-4)GlcNAc(b1-2)Man(a1-6)]Man(b1-4)GlcNAc(b1-4)GlcNAc
# In short: as §1
# [6] = target: GalNAc(b1-4)GlcNAc(b1-3)GalNAc(b1-4)GlcNAc
# In short: as §1
# GalNAc(b1-4)GlcNAc6S = target: GalNAc(b1-4)GlcNAc6S
# In short: as §1
# GalNAc(b1-6)GalNAc = target: GalNAc(b1-6)GalNAc
# In short: as §1
# GalNAc3S(b1-4)GlcNAc = target: GalNAc3S(b1-4)GlcNAc
# In short: as §1
# GalNAc3S(b1-4)GlcNAc3S = target: GalNAc3S(b1-4)GlcNAc3S
# In short: as §1
# [7] = target: GalNAc3S(b1-4)[Fuc(a1-3)]GlcNAc
# In short: as §1
# GalNAc4S6S(b1-4)GlcNAc = target: GalNAc4S6S(b1-4)GlcNAc
# In short: as §1
# GalNAc6S(b1-4)GlcNAc = target: GalNAc6S(b1-4)GlcNAc
# In short: as §1
# Glc(a1-4)Glc = target: Glc(a1-4)Glc
# In short: as §1
# [8] = target: Glc(a1-4)Glc(a1-4)Glc(a1-4)Glc
# In short: as §1
# Glc(a1-6)Glc(a1-6)Glc = target: Glc(a1-6)Glc(a1-6)Glc
# In short: as §1
# [9] = target: Glc(a1-6)Glc(a1-6)Glc(a1-6)Glc
# In short: as §1
# Glc(b1-4)Glc = target: Glc(b1-4)Glc
# In short: as §1
# Glc(b1-6)Glc = target: Glc(b1-6)Glc
# In short: as §1
# GlcA(b1-3)Gal = target: GlcA(b1-3)Gal
# In short: as §1
# GlcA(b1-3)GlcNAc = target: GlcA(b1-3)GlcNAc
# In short: as §1
# GlcA(b1-6)Gal = target: GlcA(b1-6)Gal
# In short: as §1
# [10] = target: GlcA3S(b1-3)Gal(b1-4)GlcNAc(b1-2)Man
# In short: as §1
# [11] = target: GlcA3S(b1-3)Gal(b1-4)GlcNAc(b1-3)Gal(b1-4)Glc
# In short: as §1
# [12] = target: GlcNAc(a1-3)Gal(b1-4)GlcNAc
# In short: as §1
# [13] = target: GlcNAc(a1-4)Gal(b1-3)GlcNAc
# In short: as §1
# [14] = target: GlcNAc(a1-4)Gal(b1-4)GalNAc
# In short: as §1
# [15] = target: GlcNAc(a1-4)Gal(b1-4)GlcNAc
# In short: as §1
# [16] = target: GlcNAc(a1-4)Gal(b1-4)GlcNAc(b1-3)Gal(b1-4)Glc
# In short: as §1
# [17] = target: GlcNAc(a1-4)Gal(b1-4)GlcNAc(b1-3)Gal(b1-4)GlcNAc
# In short: as §1
# [18] = target: GlcNAc(a1-4)Gal(b1-4)GlcNAc(b1-3)Gal(b1-4)GlcNAc(b1-3)Gal(b1-4)GlcNAc
# In short: as §1
# [19] = target: GlcNAc(a1-4)Gal(b1-4)GlcNAc(b1-3)Gal(b1-4)[Fuc(a1-3)]GlcNAc(b1-3)Gal(b1-4)[Fuc(a1-3)]GlcNAc
# In short: as §1
# [20] = target: GlcNAc(a1-6)Gal(b1-4)GlcNAc
# In short: as §1
binder,measurement,setting,value
Nc3LysM (protein) QFTVPPDTTAEPNTIKTCTWWHVAGSGDSCTSIASTYGITSEQFARWDMETTDSPKNPSVATACKLTVGNSYCIENNFGQDDPPTPSISSSTLIGTATTSTTASTTTGNGISTPTPIQEGMETATTTTSSGNGITTPTPTQAGMETVGNCDRFHLVKSGDQCGTIASTYGITLANFYSWNPAVGTSCQSLWLDTYVCVRTIGFVPPKTTTTTTKKPTSTTSAGGVATPTPTQPGMETVSGCKKFHKGRGNVSTVASGDQCGTIATRYGISLANFYSWNPAVGSSCQTLWLDYYVCVGR,glycan array binding signal (z-score),GalNAc(b1-3)Gal,0.084
same,glycan array binding signal (z-score),[1],-0.56
same,glycan array binding signal (z-score),[2],-0.078
same,glycan array binding signal (z-score),[3],-0.079
same,glycan array binding signal (z-score),GalNAc(b1-3)GalNAc,-0.227
same,glycan array binding signal (z-score),GalNAc(b1-3)GlcNAc,-0.067
same,glycan array binding signal (z-score),GalNAc(b1-4)Gal(b1-4)Glc,-0.085
same,glycan array binding signal (z-score),GalNAc(b1-4)GlcNAc,-0.055
same,glycan array binding signal (z-score),[4],-0.236
same,glycan array binding signal (z-score),[5],0.001
same,glycan array binding signal (z-score),[6],-0.153
same,glycan array binding signal (z-score),GalNAc(b1-4)GlcNAc6S,-0.178
same,glycan array binding signal (z-score),GalNAc(b1-6)GalNAc,-0.11
same,glycan array binding signal (z-score),GalNAc3S(b1-4)GlcNAc,-0.256
same,glycan array binding signal (z-score),GalNAc3S(b1-4)GlcNAc3S,0.082
same,glycan array binding signal (z-score),[7],-0.103
same,glycan array binding signal (z-score),GalNAc4S6S(b1-4)GlcNAc,0.011
same,glycan array binding signal (z-score),GalNAc6S(b1-4)GlcNAc,-0.001
same,glycan array binding signal (z-score),Glc(a1-4)Glc,0.185
same,glycan array binding signal (z-score),[8],-0.019
same,glycan array binding signal (z-score),Glc(a1-6)Glc(a1-6)Glc,-0.143
same,glycan array binding signal (z-score),[9],0.326
same,glycan array binding signal (z-score),Glc(b1-4)Glc,-0.284
same,glycan array binding signal (z-score),Glc(b1-6)Glc,0.079
same,glycan array binding signal (z-score),GlcA(b1-3)Gal,-0.214
same,glycan array binding signal (z-score),GlcA(b1-3)GlcNAc,-0.019
same,glycan array binding signal (z-score),GlcA(b1-6)Gal,-0.075
same,glycan array binding signal (z-score),[10],0.107
same,glycan array binding signal (z-score),[11],-0.126
same,glycan array binding signal (z-score),[12],-0.2
same,glycan array binding signal (z-score),[13],-0.199
same,glycan array binding signal (z-score),[14],0.113
same,glycan array binding signal (z-score),[15],0.199
same,glycan array binding signal (z-score),[16],0.01
same,glycan array binding signal (z-score),[17],0.052
same,glycan array binding signal (z-score),[18],-0.05
same,glycan array binding signal (z-score),[19],0.109
same,glycan array binding signal (z-score),[20],-0.248
